{
  "source": "PubChem BioAssay AID1508642",
  "about": "(National Center for Advancing Translational Sciences (NCATS), 2021)",
  "note": "Among all 43,000 compounds or so, about 200 (0.47%) were called active. About 12% were inconclusive and are not listed. The call rests on the fitted dose curve; in most records, active means well fitted cell-killing curve with a large enough effect; inconclusive means small, poorly fitted or top-dose-only effect, or effect the other way; inactive means flat fitted curve, though single readings scatter. This is one part of the list. On the % scale 0 is the no-effect control and ±100 the full control effect.",
  "data": [
    {"test": "Cell viability qHTS assay in S16 Pmp22-F2sN cells; further: nearly all actives have a fitted effect of over 65% in size", "conditions": "S16 Pmp22-F2sN Schwann cells viability, CellTiter-Glo, 24 h; series mostly up to 57.5 µM; activity change, negative = cytotoxicity: at the top concentration", "how_it_was_run": "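S16 Pmp22-F2sN Schwann cells (500-1,000/well) in phenol-red-free DMEM with 10% FBS received 23 nL compound by pin tool for 24 h at 37 °C. Viability was then read as CellTiter-Glo luminescence after 15 min at room temperature.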", "values": [
      {"compound": "CCOc1ccccc1NC(=O)Nc1nnc(N(C)Cc2ccccc2)s1", "activity change, negative = cytotoxicity": "inactive: -10.5%"},
      {"compound": "CCn1c(C(=O)N2CCCC(C(=O)NCCCOC)C2)cc2sccc21", "note": "(stereo not drawn)", "activity change, negative = cytotoxicity": "inactive: 1.46%"},
      {"compound": "COc1cc(Cl)c(C)cc1NC(=O)CCc1c(C)nc2cc(-c3cccc(F)c3)nn2c1C", "activity change, negative = cytotoxicity": "inactive: 1.52%"},
      {"compound": "CCc1c(C)sc2c1CCN(C(=O)Nc1ccccc1C(F)(F)F)C2c1ccccc1", "note": "(stereo not drawn)", "activity change, negative = cytotoxicity": "inactive: -20.7%"},
      {"compound": "Cc1ccccc1NC(=O)c1c(NC(=O)C(C)Oc2cccc(Cl)c2)sc2c1CCCC2", "note": "(stereo not drawn)", "activity change, negative = cytotoxicity": "inactive: 8.74%"},
      {"compound": "Cc1ccc(-c2nc3ccc(Cl)cn3c2Nc2ccc3c(c2)OCCO3)o1", "activity change, negative = cytotoxicity": "inactive: 1.07%"},
      {"compound": "COc1ccc(-c2nc(CS(=O)CC(=O)NCc3ccc(F)cc3)c(C)o2)cc1OC", "note": "(stereo not drawn)", "activity change, negative = cytotoxicity": "inactive: -14.6%"},
      {"compound": "CCCCOc1ccc(C2=NC(c3ccncc3)=Nc3ccc(Br)cc3N2)cc1", "activity change, negative = cytotoxicity": "inactive: -0.708%"},
      {"compound": "COc1ccc(N2CCN(C(CNC(=O)CC(C)C)c3ccc4c(c3)OCO4)CC2)cc1", "note": "(stereo not drawn)", "activity change, negative = cytotoxicity": "inactive: 8.26%"},
      {"compound": "CCc1cccc(CC)c1NC(=O)Cn1nnc2sc(-c3ccccc3)cc2c1=O", "activity change, negative = cytotoxicity": "inactive: 8.43%"},
      {"compound": "Cc1ccc(/C=C/c2onc(C)c2S(=O)(=O)N2CCC(C(=O)N3CC(C)Oc4ccccc43)CC2)cc1", "note": "(stereo not drawn)", "activity change, negative = cytotoxicity": "inactive: 4.08%"},
      {"compound": "CCCCCn1c(=O)[nH]c2cc(C(=O)N3CCN(c4ccccc4)CC3)ccc2c1=O", "activity change, negative = cytotoxicity": "inactive: 8.74%"},
      {"compound": "CCOc1ccccc1N(CC)C(=O)Nc1cn(C)c(=O)c2ccccc12", "activity change, negative = cytotoxicity": "inactive: 3.66%"},
      {"compound": "COc1ccc(OCC(=O)Nc2ccc(C(=O)OCc3cc(=O)n4nc(C)sc4n3)cc2)cc1", "activity change, negative = cytotoxicity": "inactive: 3.48%"},
      {"compound": "CC(=O)Nc1nonc1-c1nnc(SCC(=O)Nc2ccc(F)cc2F)n1-c1ccccc1", "activity change, negative = cytotoxicity": "inactive: -5.17%"},
      {"compound": "Cc1c(C)n(Cc2ccccc2)c2ccc(C(=O)NC(C)c3ccccc3)cc12", "note": "(stereo not drawn)", "activity change, negative = cytotoxicity": "inactive: -1.34%"},
      {"compound": "Cc1ccc(Cn2c(CNS(=O)(=O)c3c(C)cc(C)cc3C)nc3cccnc32)cc1", "activity change, negative = cytotoxicity": "inactive: -2.22%"},
      {"compound": "Cc1cccc(OCCSc2nc3ccccc3n2CC(=O)N2CCCCC2)c1C", "activity change, negative = cytotoxicity": "inactive: -13.7%"},
      {"compound": "CCn1ccc2cc(S(=O)(=O)N3CCCN(C(=O)Nc4ccccc4OC)CC3)ccc21", "activity change, negative = cytotoxicity": "inactive: 5.38%"},
      {"compound": "CCc1ccc(OCC(=O)N(Cc2cccs2)c2ccc(Cl)cc2)cc1", "activity change, negative = cytotoxicity": "inactive: 3.67%"},
      {"compound": "CCOC(=O)N1CCN(S(=O)(=O)N2CCCC(C(=O)NCc3cc(OC)ccc3OC)C2)CC1", "note": "(stereo not drawn)", "activity change, negative = cytotoxicity": "inactive: -1.15%"},
      {"compound": "COc1ccc(N2CC(NC(=O)/C=C\\c3ccc(OC)c(OC)c3)CC2=O)cc1", "note": "(stereo not drawn)", "activity change, negative = cytotoxicity": "inactive: -2.91%"},
      {"compound": "Cc1nc(CC(=O)Nc2ccc(C)c(C)c2)cs1", "activity change, negative = cytotoxicity": "inactive: 2.24%"},
      {"compound": "CCOCCCNC(=O)C1CCCN(Cc2nc(-c3ccc(CC)cc3)oc2C)C1", "note": "(stereo not drawn)", "activity change, negative = cytotoxicity": "inactive: 9.93%"},
      {"compound": "CCN(C(=O)CCc1nc(-c2ccc(C)cc2)no1)c1cc(C)ccc1C", "activity change, negative = cytotoxicity": "inactive: 3.93%"},
      {"compound": "CCCCN(C)CCCNC(=O)c1ccc2nc(N3CCCCC3)sc2c1", "activity change, negative = cytotoxicity": "inactive: 4.2%"},
      {"compound": "Cc1cc2oc(=O)c(CC(=O)NCCc3ccccc3)c(C)c2c2occ(C(C)(C)C)c12", "activity change, negative = cytotoxicity": "inactive: 2%"},
      {"compound": "COc1cc2c(cc1NC(=O)COc1cc(C)ccc1C)oc1ccccc12", "activity change, negative = cytotoxicity": "inactive: -2.54%"},
      {"compound": "COc1ccc(-c2cn3c(n2)sc2cc(C(=O)NC4CCCc5ccccc54)ccc23)cc1", "note": "(stereo not drawn)", "activity change, negative = cytotoxicity": "inactive: -10.2%"},
      {"compound": "Cc1cc(C(=O)O)c2c(=O)n(C)c(=O)n(C)c2n1", "activity change, negative = cytotoxicity": "inactive: 1.54%"},
      {"compound": "CCOCCCNC(=O)Cn1nc(C)n2c(cc3cc(C)ccc32)c1=O", "activity change, negative = cytotoxicity": "inactive: 14%"},
      {"compound": "O=C(COc1ccccc1Cl)Nc1nc2c(s1)CCCC2", "activity change, negative = cytotoxicity": "inactive: -10.5%"},
      {"compound": "CCCCN(CCCNC(=O)CN1N=C(c2ccccc2)CCC1=O)c1ccccc1", "activity change, negative = cytotoxicity": "inactive: -11.9%"},
      {"compound": "Clc1ccc(-c2csc(=Nc3ccccc3)n2Cc2ccc3c(c2)OCO3)cc1", "activity change, negative = cytotoxicity": "inactive: -13.2%"},
      {"compound": "Cc1ccc2nc(COc3ccc(NC(=O)COc4ccccc4F)cc3)cc(=O)n2c1", "activity change, negative = cytotoxicity": "inactive: 1.35%"},
      {"compound": "Cc1cccc(OCc2nc(C#N)c(NCc3ccccc3Cl)o2)c1", "activity change, negative = cytotoxicity": "inactive: 4.09%"},
      {"compound": "CCOC(=O)C1CCN(C(=O)CSc2n[nH]c(-c3ccccc3)n2)CC1", "activity change, negative = cytotoxicity": "inactive: -3.24%"},
      {"compound": "COc1ccc(NC(=O)CSc2nc3ccccc3[nH]2)cc1", "activity change, negative = cytotoxicity": "inactive: -7.51%"},
      {"compound": "CC(=O)Nc1nonc1-c1nnc(SCc2ccc(F)cc2)n1C", "activity change, negative = cytotoxicity": "inactive: -3.96%"},
      {"compound": "COc1ccc(NC(=O)COCc2cc(-c3ccco3)on2)cc1", "activity change, negative = cytotoxicity": "inactive: -1.21%"},
      {"compound": "COc1cc2c(=O)c(C(=O)c3ccc(C)c(C)c3)cn(Cc3ccccc3)c2cc1OC", "activity change, negative = cytotoxicity": "inactive: -17.8%"},
      {"compound": "COc1ccc(-c2cc3nc(C)c(CCC(=O)N4CCN(c5ccccc5)CC4)c(C)n3n2)c(OC)c1", "activity change, negative = cytotoxicity": "inactive: 1.08%"},
      {"compound": "Cc1cc(C)c2nc(NC(=O)c3ccc(S(=O)(=O)N4CCCC4)cc3)sc2c1", "activity change, negative = cytotoxicity": "inactive: 10.1%"},
      {"compound": "Cc1ccc(C)c(N2CCN(C(=O)Cn3c(=O)c4cccn4c4ccc(F)cc43)CC2)c1", "activity change, negative = cytotoxicity": "inactive: -10.2%"},
      {"compound": "Cc1ccc(NC(=O)CSCn2nnc3c(=O)[nH]c(Cc4ccc(F)cc4)nc32)c(C)c1", "activity change, negative = cytotoxicity": "inactive: -13.3%"},
      {"compound": "Oc1ccc(-c2nc3ccccn3c2Nc2ccc3c(c2)OCCO3)cc1", "activity change, negative = cytotoxicity": "inactive: 1.62%"},
      {"compound": "CCn1cc(S(=O)(=O)c2ccc(OC)cc2)c(=O)c2cc(F)c(N3CCC(C)CC3)cc21", "activity change, negative = cytotoxicity": "inactive: -0.592%"},
      {"compound": "CCCN(CCC)CCCNC(=O)C1CCC(CNS(=O)(=O)c2cccc3nsnc23)CC1", "note": "(stereo not drawn)", "activity change, negative = cytotoxicity": "inactive: -1.77%"},
      {"compound": "CCOc1ccc(CNC(=O)C2CCN(S(=O)(=O)N3CCCCC3)CC2)cc1", "activity change, negative = cytotoxicity": "inactive: 12.7%"},
      {"compound": "CCCc1nn2c(=O)cc(COC(=O)c3cccc(NC(=O)CCc4ccccc4)c3)nc2s1", "activity change, negative = cytotoxicity": "inactive: 0.0808%"},
      {"compound": "NCCCCCc1nnc(SCc2ccc(F)cc2)o1", "activity change, negative = cytotoxicity": "inactive: 14.5%"},
      {"compound": "COCCCNC(=O)c1ccc2nc(Cc3ccc(OC)cc3)oc2c1", "activity change, negative = cytotoxicity": "inactive: -1.33%"},
      {"compound": "COc1cccc(C(=O)Nc2cc(-c3cn4cccnc4n3)ccc2C)c1OC", "activity change, negative = cytotoxicity": "inactive: 1.43%"},
      {"compound": "CCOc1ccc(NC(=O)c2sc3nc4c(cc3c2N)CCCCCC4)cc1", "activity change, negative = cytotoxicity": "inactive: -0.103%"},
      {"compound": "O=C(c1cccs1)N(Cc1cccnc1)c1nc2ccc(F)cc2s1", "activity change, negative = cytotoxicity": "inactive: -6.12%"},
      {"compound": "Cc1ccc(OCC(=O)Nc2ccccc2C(=O)OCc2cc(=O)n3nc(C4CC4)sc3n2)cc1", "activity change, negative = cytotoxicity": "inactive: -1.09%"},
      {"compound": "Cc1nc2ccccn2c(=O)c1NC(=O)c1c(F)cccc1F", "activity change, negative = cytotoxicity": "inactive: -1.38%"},
      {"compound": "CC1CCN(C(=O)c2c(NC(=O)c3ccccc3F)sc3c2CCC(C(C)(C)C)C3)CC1", "note": "(stereo not drawn)", "activity change, negative = cytotoxicity": "inactive: -2.88%"},
      {"compound": "Cc1ccc(NC(=O)C2CCCN(c3ncnc4c3nc3n4CCCCC3)C2)cc1F", "note": "(stereo not drawn)", "activity change, negative = cytotoxicity": "inactive: -12.5%"},
      {"compound": "O=C(Cc1csc2ccccc12)NCc1cccc(Br)c1", "activity change, negative = cytotoxicity": "inactive: -2.75%"},
      {"compound": "CN(C)S(=O)(=O)n1cc(/C=C(\\NC(=O)c2ccccc2F)C(=O)NCCCn2ccnc2)c2ccccc21", "activity change, negative = cytotoxicity": "inactive: 10.4%"},
      {"compound": "Cc1ccccc1CN1CCC(CNc2ncnc3onc(-c4ccc(Cl)cc4)c23)CC1", "activity change, negative = cytotoxicity": "inactive: -0.718%"},
      {"compound": "COc1ccc(Nc2c(-c3ccc(Cl)cc3)nc3cnccn23)cc1OC", "activity change, negative = cytotoxicity": "inactive: -9.83%"}
    ]}
  ]
}
